{
  "source": "paper PMC8389370",
  "about": "“pUL21 is a viral phosphatase adaptor that promotes herpes simplex virus replication and spread” (PLoS Pathogens, 2021)",
  "binders": {"B1": {"name": "PP1γ([…])-H6, core catalytic domain of mouse PP1γ (domain or fragment)", "chain": "not shown", "notes": "mouse PP1γ, […], core catalytic domain, […], sub-cloned into pOPTnH; also called PP1([…])-H6; source: E. coli T7 Express lysY/Iq, purified (Ni-NTA, SEC); not shown: KH6, C-terminal, kept"}},
  "target": "T1, pUL21-GST (HSV-1 strain KOS, UniProt F8RG07 1-535)",
  "T1 construct": "HSV-1 strain KOS pUL21, UniProt F8RG07; the plasmid for the GST fusion is not described; also called Purified recombinant pUL21-GST; source: E. coli T7 Express lysY/Iq, purified (glutathione Sepharose 4B, SEC)",
  "T1 sequence": "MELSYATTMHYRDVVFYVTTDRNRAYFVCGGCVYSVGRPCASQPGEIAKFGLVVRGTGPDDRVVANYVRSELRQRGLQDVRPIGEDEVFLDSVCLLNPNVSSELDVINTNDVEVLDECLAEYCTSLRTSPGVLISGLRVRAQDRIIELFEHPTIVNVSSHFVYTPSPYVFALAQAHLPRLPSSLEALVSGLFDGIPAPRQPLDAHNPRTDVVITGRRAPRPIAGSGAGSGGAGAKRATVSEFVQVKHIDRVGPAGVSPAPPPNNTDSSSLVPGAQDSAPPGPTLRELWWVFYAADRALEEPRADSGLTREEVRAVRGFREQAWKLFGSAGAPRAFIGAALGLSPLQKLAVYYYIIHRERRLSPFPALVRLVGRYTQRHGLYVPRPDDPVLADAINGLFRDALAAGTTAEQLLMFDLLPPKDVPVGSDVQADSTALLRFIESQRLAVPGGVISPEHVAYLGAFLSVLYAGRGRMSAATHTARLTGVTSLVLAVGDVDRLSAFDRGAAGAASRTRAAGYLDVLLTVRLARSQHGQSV",
  "test": "pull-down; pUL21-GST (1 μM) on glutathione magnetic beads, 5 μM purified prey, 60 min at room temperature, 20 mM Tris pH 8.5, 200 mM NaCl, 0.1% NP-40, 1 mM DTT, 1 mM EDTA; eluted with glutathione, Coomassie SDS-PAGE",
  "settings": "both partners purified",
  "data": [
    {"binder": "B1", "values": [
      {"measurement": "binding result", "result": "binds"}
    ]}
  ]
}
